The values that follow come from the supplement of paper PMC11417369.

The list shows a part of the results.

The test deals with PF3D7_0420300 AP2 domain 1 (GST-tagged). The test is described as follows: gcPBM binding intensity (ln(normalized median fluorescence intensity)); higher = stronger DNA binding. A digest of the protocol:
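Binding intensity values are the highest Masliner-normalised natural-log median intensity among replicate spots of either probe orientation. The binding step lasted 1 h in 1× PBS with 1% milk, 0.2 mg/ml BSA, 0.5% salmon testes DNA and 0.03% Triton X-100, using GST-tagged P. falciparum DNA-binding domains expressed in E. coli on an Agilent 4 × 180k array of primer-extended double-stranded 36-bp intergenic genomic probes plus negative controls. Alexa488 anti-GST antibody and a 488 nm scan detected bound protein.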
For the sequence “TATGTCAATCAAGCAAGTACATATATATATAAATAT [XGTACX_site7554]”, the “gcPBM binding intensity (ln)” value turned out to be 9.09.
Then “CTTTTAATATTAAGATGTACTTAGAATTTTTTTTTT [XGTACX_site8338]”, with 8.98; and TTTTTTGTTATTGGCGTGCACATATCCATTTATAGT, with 9.33; and “CATATATATTTATGTACACACATTAATAAAAAAAAA [CACACA_site5741]”, with 9.46.
The value for “ATATATATAAATAATTGTACTTAAAAAAAAAAAAGG [XGTACX_site6847]” was 9.23; that for “TGTAGAGCGCAAAGTAGTACTACAAATTATGGAGGG [XGTACX_site3022]” was 9.44.
The value for “AACAGCATATCACATTTCTTCAAAAAAAAATAAAAT [CACACA_negctrl_site733]” was 9.19; that for “CATCTTAGTTTGAGTTGTACAATATTTATAAAAATA [XGTACX_site693]” was 9.06.
“ACAAGTTTAACATTTCGTACTTATTGTGTTTTTTTT [XGTACX_site5487]”: the “gcPBM binding intensity (ln)” value came to 9.54.
Then “ATATATATTTAAAGATGTACATAATGAAATGGTTAT [XGTACX_site4706]”, with 9.5; and “GCAGTATTTCGGAACACACAAACATAAATATGTATT [CACACA_site2316]”, with 9.44; and “ATATATATATATGTATGTACATATTTTTTTTAACAC [XGTACX_site8475]”, with 9.24.
For the sequence “GCACAATTTACACTTAAACACACAAAAAAAAATTAT [CACACA_site8642]”, the “gcPBM binding intensity (ln)” value came out at 9.43.
The value for “AAATTTATTTATTATAGTACACTTAATACTACCCAA [XGTACX_site41]” was 9.02; that for “AGCACAGACGGACACACACACACACCCACAGACACA [CACACA_site4358]” was 10.2; that for “TATACACGCGGACACACACACACACGCAAAAAAAAA [CACACA_site6377]” was 10.1.
Then “TAAAAACCAAAGAAAAGTACAAATTTAAATGAGAAA [XGTACX_site7450]”, with 9.42; and “ATAAGCCATTTTTGTGGTACATAAAATAGATATATA [XGTACX_site5175]”, with 9.09.
“TTTACACCGTAATATGCATGTGTGTATATATTTTTG [TGCATGCA_site186]”: the “gcPBM binding intensity (ln)” value amounted to 9.45.
In the case of “TTATCTTACATATATCATTAAATCATATAACAAAAA [XGTACX_negctrl_site517]”, the “gcPBM binding intensity (ln)” value came out at 8.92.
The value for “AACCTCATGGACATATGTACACATATACAATTATTT [XGTACX_site6533]” was 9.36.
The value for GTTATATTTAAAATAGTGCAATAAAAATAATAATAT was 9.3; that for “CCTTTATAATTGGAAACACACATATAAAGTATATAT [CACACA_site3900]” was 9.2.
Then “CACAAATATACAAATACACACAAATATACGCATATA [CACACA_site2384]”, with 9.83; and “TTATGTATTTTAAATGGTTTTATTATAAAGTTTAAT [CACACA_negctrl_site1470]”, with 9.13.
“TACATAACTTTAATCACACACAAACAAACACATACA [CACACA_site6235]”: the “gcPBM binding intensity (ln)” value came to 9.77.
With “AAAATACATGGACACACACACACACCGATATATATA [CACACA_site5885]”, the “gcPBM binding intensity (ln)” value stood at 10.3.
In the case of “ATATAATATATATACAAACACACAATTGTGTCCACA [CACACA_site1748]”, the “gcPBM binding intensity (ln)” value came to 9.61.
Then “AAATATACATATATATGTACATATAAATATATTTTA [XGTACX_site5266]”, with 9.12; and “TAGTTTTCTTAAAGATGTACTTATTAAAAATAAACT [XGTACX_site1001]”, with 8.81; and “AATGATTGATTTTATTGTACGTACTCGGAATATGGT [XGTACX_site4976]”, with 9.21.
As to “TATAGATAAATTATTTGTACTTATAAAATTATTATA [XGTACX_site2870]”, the “gcPBM binding intensity (ln)” value came out at 8.97.
For “GAATTTTAAATAAACATATAAACAGAAAAAAAAAAA [TGCATGCA_negctrl_site149]”, the “gcPBM binding intensity (ln)” value was determined as 9.37.
The value for “TGGTTATAATTGTACGCATGTAATTACATATTCTCT [TGCATGCA_site599]” was 9.39; that for “AATATGCCTCCCCAAAAAAAATATATATATATTTAT [GTGCAC_negctrl_site716]” was 9.16; that for “TATATTTAAATATATACACACATTATCATTTTCATA [CACACA_site1708]” was 9.58.
The value for “TTTTTTACTATATCAATTACAAAACAAAAAAAAAAA [GTGCAC_negctrl_site683]” was 8.96.
Turning to “TATCATTTGGTCTTTTACTTTTTCTGTTTTTTTTTT [CACACA_negctrl_site976]”, the “gcPBM binding intensity (ln)” value was determined as 9.69.
Then “AAATATGTTTCAAAAAGTACATTTCTATCTTTTTTT [XGTACX_site7178]”, with 9.22; and “TGATAAAATATTAAATTATTTCTTTATTTAAAGATT [CACACA_negctrl_site370]”, with 8.66.
Take “TCTTACAAGGAACTAATAAAATTGTAGTTTGTATTT [CACACA_negctrl_site386]”: the “gcPBM binding intensity (ln)” value is 9.1.
The value for “TTATTATTTATTTTTTATTATTATTATTTTTTTTTA [XGTACX_negctrl_site76]” was 9.21.
On to “AAATCTTAATAAAGTTGTACATAATTATGTTTAATA [XGTACX_site3348]”, for which the “gcPBM binding intensity (ln)” value turned out to be 9.08.
Then “AAGTATTTCCTAAAATGTACATATAAATAAGTATAT [XGTACX_site1282]”, with 9.19.
The value for “TTAAAATTAAAATACGTACACACCTTATCTTTTTGG [CACACA_site7982]” was 9.27; that for “GAAAAGATTTAAAAATGTACAAAAGAAAAAAAAAAA [XGTACX_site6916]” was 9.09.
The value for “TATATTTATTTATATGTATGCATGTCTGTATATGCT [TGCATGCA_site339]” was 9.13.
Consider “CAAAGATAAAATGATGCACACAAAAGGGTGTAATAT [CACACA_site8499]”, for which the “gcPBM binding intensity (ln)” value was found to be 9.73.
For “AAAGTACAATCATAATCACACGTGTCTATTATATAC [CACACA_site8103]”, the “gcPBM binding intensity (ln)” value stood at 9.5.
Then “ACATGGTTTACACGTGCATGTGGATGACTGGACATT [TGCATGCA_site640]”, with 9.27.
Then “AATACGACAAACAAATGTACAAATAAATATTCGCGT [XGTACX_site6427]”, with 9.67; and “TTTTCTTTTAATATTTTTAATAATTATATTTTGAAA [XGTACX_negctrl_site495]”, with 8.78.
Then “TGAGAAAATTAAAAGGTGCTCAGAAATTTTATATTA [GTGCAC_site9954]”, with 9.08.
“AAATTACTAATGTGCACACATACTAACGTTTAAATA [CACACA_site3572]”: the “gcPBM binding intensity (ln)” value was found to be 9.5.
Then AAAAATGTAAAGTGCGTGCACAAAATATTTGGAAAA, with 9.27; and “TAAAATTTAAAATATACACACAAAAAGTTATTACAA [CACACA_site4080]”, with 9.49.
In the case of “AAATTATTATGAAATGGAAAATGCATAAATTGTTTT [XGTACX_negctrl_site206]”, the “gcPBM binding intensity (ln)” value is 9.19.
